Measured values from EP4491631A1 (Anaveon AG, dated 2025).

T1: IL-2R on murine splenocytes (mouse, UniProt P16297 27-539; P34902 23-369)
T1 sequence (looked up) 1: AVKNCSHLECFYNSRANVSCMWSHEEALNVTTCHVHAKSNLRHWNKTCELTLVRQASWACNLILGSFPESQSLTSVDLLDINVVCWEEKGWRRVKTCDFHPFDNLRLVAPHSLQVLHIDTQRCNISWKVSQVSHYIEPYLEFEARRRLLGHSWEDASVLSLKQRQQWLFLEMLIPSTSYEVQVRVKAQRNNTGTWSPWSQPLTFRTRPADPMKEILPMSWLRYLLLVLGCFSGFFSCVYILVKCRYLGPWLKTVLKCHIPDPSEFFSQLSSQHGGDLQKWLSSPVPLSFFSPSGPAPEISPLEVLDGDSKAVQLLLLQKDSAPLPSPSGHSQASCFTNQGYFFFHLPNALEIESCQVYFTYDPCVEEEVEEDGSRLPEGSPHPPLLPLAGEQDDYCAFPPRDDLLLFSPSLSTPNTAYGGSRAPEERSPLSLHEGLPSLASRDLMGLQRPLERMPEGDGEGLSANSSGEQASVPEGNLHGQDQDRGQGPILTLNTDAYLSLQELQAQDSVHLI
T1 sequence (looked up) 2: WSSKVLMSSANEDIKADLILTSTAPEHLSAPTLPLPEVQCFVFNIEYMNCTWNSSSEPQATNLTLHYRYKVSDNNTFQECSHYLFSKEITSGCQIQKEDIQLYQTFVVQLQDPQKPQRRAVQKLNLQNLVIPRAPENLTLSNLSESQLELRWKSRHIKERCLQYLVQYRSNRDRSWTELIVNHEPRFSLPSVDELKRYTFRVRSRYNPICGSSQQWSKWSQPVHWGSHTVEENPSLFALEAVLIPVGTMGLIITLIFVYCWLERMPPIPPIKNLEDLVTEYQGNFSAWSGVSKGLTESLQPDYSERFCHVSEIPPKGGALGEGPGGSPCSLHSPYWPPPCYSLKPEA

T2: IL-2R CD122-CD132 on Jurkat-PD1+ CD122+ cells (UniProt P14784 27-551; P31785 23-369)
T2 sequence (looked up) 1: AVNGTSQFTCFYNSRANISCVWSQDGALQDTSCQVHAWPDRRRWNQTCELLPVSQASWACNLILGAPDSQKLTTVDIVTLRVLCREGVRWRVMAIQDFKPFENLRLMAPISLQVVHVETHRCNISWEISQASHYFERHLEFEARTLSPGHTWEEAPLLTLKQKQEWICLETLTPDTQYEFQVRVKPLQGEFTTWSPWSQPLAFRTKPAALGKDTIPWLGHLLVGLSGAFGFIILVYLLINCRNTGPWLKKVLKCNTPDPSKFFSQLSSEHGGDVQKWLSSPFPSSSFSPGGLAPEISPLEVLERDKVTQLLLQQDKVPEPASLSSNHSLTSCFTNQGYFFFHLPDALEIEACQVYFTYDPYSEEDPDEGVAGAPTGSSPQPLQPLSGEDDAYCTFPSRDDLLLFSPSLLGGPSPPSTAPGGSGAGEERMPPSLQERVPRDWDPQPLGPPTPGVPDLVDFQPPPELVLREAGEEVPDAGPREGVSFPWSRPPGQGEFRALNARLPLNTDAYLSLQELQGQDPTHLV
T2 sequence (looked up) 2: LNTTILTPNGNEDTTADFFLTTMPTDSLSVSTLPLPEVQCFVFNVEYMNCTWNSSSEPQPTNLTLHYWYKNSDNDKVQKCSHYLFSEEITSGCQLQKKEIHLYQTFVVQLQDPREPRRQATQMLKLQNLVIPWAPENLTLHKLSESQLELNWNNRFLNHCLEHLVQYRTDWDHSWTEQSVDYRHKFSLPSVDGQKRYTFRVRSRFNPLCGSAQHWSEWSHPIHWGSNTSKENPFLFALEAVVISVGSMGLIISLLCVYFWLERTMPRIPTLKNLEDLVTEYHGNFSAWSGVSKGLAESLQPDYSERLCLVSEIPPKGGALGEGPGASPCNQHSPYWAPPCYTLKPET


Tests used:
Test in all cases: cell-based or functional assay
[1] = biological target: T1, IL-2R on murine splenocytes
[2] = biological target: T2, IL-2R CD122-CD132 on Jurkat-PD1+ CD122+ …
[3] = biological target: T1, IL-2R on murine splenocytes; remark: listed apart in the source

| EC50 CD8 cells (pSTAT5) [1] | EC50 NK cells (pSTAT5) [1] | EC50 Treg cells (pSTAT5) [1] | EC50 value for pSTAT5 induction [2] | EC50 pSTAT5 on CD8 cells [3] | EC50 pSTAT5 on NK cells [3] | EC50 pSTAT5 on Treg cells [3] | Binder |
| --- | --- | --- | --- | --- | --- | --- | --- |
| 26.4 nM | 2 nM | 0.9 nM | – | – | – | – | BFC885 (other) heavy: QVQLVESGGGVVQPGRSLRLSCAASGYTFSSYLIEWVRQAPGKGLEWVAVINPGSGGTNYADSVKGRFTISADKSKNTAYLQMNSLRAEDTAVYYCARWRGDGYYAYFDVWGQGTTVTVSSASTKGPSVFPLAPSSKSTSGGTAALGCLVKDYFPEPVTVSWNSGALTSGVHTFPAVLQSSGLYSLSSVVTVPSSSLGTQTYICNVNHKPSNTKVDKRV[gap - human IgG1 Fc with changes] light: EIVLTQSPATLSVSPGERATLSCRASQSVSYGGGGSGGGGSGGGNFHLRPRDLISNINVIVLELKGSETTFMCEYADETATIVEFLNRWITFSQSIISTLTPTSSSTKKTQLQLEHLLLDLQMILNGINNYKNPKLTRMLTFKFYMPKKATELKHLQCLEEELKPLEEVLNLAQSKGGGGSGGGGSGGGGDSYMNWYQQKPGQAPRLLIYAASNLASGIPARFSGSGSGTEFTLTISSLQSEDAAVYYCQQSNEDPYTFGGGTKVEIKRTVAAPSVFIFPPSDEQLKSGTASVVCLLNNFYPREAKVQWKVDNALQSGNSQESVTEQDSKDSTYSLSSTLTLSKADYEKHKVYACEVTHQGLSSPVTKSFNRGEC |
| 4.6 nM | 1.2 nM | 5.91 nM | 1.07 nM | 17.9 nM | 2.88 nM | 4.21 nM | QTY065 (other) heavy: EVQLVQSGAEVKKPGESLKISCKGSGYAFTNYLIEWVRQMPGKGLEWMGVINPGSGGTNYNEKFKGQVTISADKSISTAYLQWSSLKASDTAMYYCARWRGEGYYAYFDVWGQGTTVTVSSASTKGPSVFPLAPSSKSTSGGTAALGCLVKDYFPEPVTVSWNSGALTSGVHTFPAVLQSSGLYSLSSVVTVPSSSLGTQTYICNVNHKPSNTKVDKRV[gap - human IgG1 Fc with changes] light: AIRLTQSPSSFSASTGDRVTITCKASQSVDYGGGNFHLRPRDLISNINVIVLELKGSETTFMCEYADETATIVEFLNRWITFSQSIISTLTPTSSSTKKTQLQLEHLLLDLQMILNGINNYKNPKLTRMLTFKFYMPKKATELKHLQCLEEELKPLEEVLNLAQSKGGGGDSYMNWYQQKPGKAPKLLIYAASNLESGVPSRFSGSGSGTDFTLTISSLQSEDFATYYCQQSNEDPYTFGGGTKVEIKRTVAAPSVFIFPPSDEQLKSGTASVVCLLNNFYPREAKVQWKVDNALQSGNSQESVTEQDSKDSTYSLSSTLTLSKADYEKHKVYACEVTHQGLSSPVTKSFNRGEC |
| 15.7 nM | 5.2 nM | 22 nM | – | – | – | – | EAD406 (other) heavy: EVQLVQSGAEVKKPGESLKISCKGSGYAFTNYLIEWVRQMPGKGLEWMGVINPGSGGTNYNEKFKGQVTISADKSISTAYLQWSSLKASDTAMYYCARWRGEGYYAYFDVWGQGTTVTVSSASTKGPSVFPLAPSSKSTSGGTAALGCLVKDYFPEPVTVSWNSGALTSGVHTFPAVLQSSGLYSLSSVVTVPSSSLGTQTYICNVNHKPSNTKVDKRV[gap - human IgG1 Fc with changes] light: AIRLTQSPSSFSASTGDRVTITCKASQSVDYNFHLRPRDLISNINVIVLELKGSETTFMCEYADETATIVEFLNRWITFSQSIISTLTPTSSSTKKTQLQLEHLLLDLQMILNGINNYKNPKLTRMLTFKFYMPKKATELKHLQCLEEELKPLEEVLNLAQSKGDSYMNWYQQKPGKAPKLLIYAASNLESGVPSRFSGSGSGTDFTLTISSLQSEDFATYYCQQSNEDPYTFGGGTKVEIKRTVAAPSVFIFPPSDEQLKSGTASVVCLLNNFYPREAKVQWKVDNALQSGNSQESVTEQDSKDSTYSLSSTLTLSKADYEKHKVYACEVTHQGLSSPVTKSFNRGEC |
| 8 nM | 2.7 nM | 10.6 nM | – | – | – | – | XFO227 (other) heavy: EVQLVQSGAEVKKPGESLKISCKGSGYAFTNYLIEWVRQMPGKGLEWMGVINPGSGGTNYNEKFKGQVTISADKSISTAYLQWSSLKASDTAMYYCARWRGEGYYAYFDVWGQGTTVTVSSASTKGPSVFPLAPSSKSTSGGTAALGCLVKDYFPEPVTVSWNSGALTSGVHTFPAVLQSSGLYSLSSVVTVPSSSLGTQTYICNVNHKPSNTKVDKRV[gap - human IgG1 Fc with changes] light: AIRLTQSPSSFSASTGDRVTITCKASQSVDYGGNFHLRPRDLISNINVIVLELKGSETTFMCEYADETATIVEFLNRWITFSQSIISTLTPTSSSTKKTQLQLEHLLLDLQMILNGINNYKNPKLTRMLTFKFYMPKKATELKHLQCLEEELKPLEEVLNLAQSKGGGDSYMNWYQQKPGKAPKLLIYAASNLESGVPSRFSGSGSGTDFTLTISSLQSEDFATYYCQQSNEDPYTFGGGTKVEIKRTVAAPSVFIFPPSDEQLKSGTASVVCLLNNFYPREAKVQWKVDNALQSGNSQESVTEQDSKDSTYSLSSTLTLSKADYEKHKVYACEVTHQGLSSPVTKSFNRGEC |
